Measurements as given in article PMC4336329 (PLoS ONE, 2015).
In all, about 310,000 compounds went through this assay and about 14,000 (4.5%) showed an effect of 50% or more. The effect is printed as a negative number. Some of the results follow.

target: human ether-à-go-go-related gene (hERG) potassium channel (human, UniProt Q12809); experiment: primary screen, population patch clamp on CHO cells stably expressing hERG
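Note: peak tail current of the secondary pulse compared with the same well before compound.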

Chain of human ether-à-go-go-related gene (hERG) potassium channel (Q12809 whole entry, looked up): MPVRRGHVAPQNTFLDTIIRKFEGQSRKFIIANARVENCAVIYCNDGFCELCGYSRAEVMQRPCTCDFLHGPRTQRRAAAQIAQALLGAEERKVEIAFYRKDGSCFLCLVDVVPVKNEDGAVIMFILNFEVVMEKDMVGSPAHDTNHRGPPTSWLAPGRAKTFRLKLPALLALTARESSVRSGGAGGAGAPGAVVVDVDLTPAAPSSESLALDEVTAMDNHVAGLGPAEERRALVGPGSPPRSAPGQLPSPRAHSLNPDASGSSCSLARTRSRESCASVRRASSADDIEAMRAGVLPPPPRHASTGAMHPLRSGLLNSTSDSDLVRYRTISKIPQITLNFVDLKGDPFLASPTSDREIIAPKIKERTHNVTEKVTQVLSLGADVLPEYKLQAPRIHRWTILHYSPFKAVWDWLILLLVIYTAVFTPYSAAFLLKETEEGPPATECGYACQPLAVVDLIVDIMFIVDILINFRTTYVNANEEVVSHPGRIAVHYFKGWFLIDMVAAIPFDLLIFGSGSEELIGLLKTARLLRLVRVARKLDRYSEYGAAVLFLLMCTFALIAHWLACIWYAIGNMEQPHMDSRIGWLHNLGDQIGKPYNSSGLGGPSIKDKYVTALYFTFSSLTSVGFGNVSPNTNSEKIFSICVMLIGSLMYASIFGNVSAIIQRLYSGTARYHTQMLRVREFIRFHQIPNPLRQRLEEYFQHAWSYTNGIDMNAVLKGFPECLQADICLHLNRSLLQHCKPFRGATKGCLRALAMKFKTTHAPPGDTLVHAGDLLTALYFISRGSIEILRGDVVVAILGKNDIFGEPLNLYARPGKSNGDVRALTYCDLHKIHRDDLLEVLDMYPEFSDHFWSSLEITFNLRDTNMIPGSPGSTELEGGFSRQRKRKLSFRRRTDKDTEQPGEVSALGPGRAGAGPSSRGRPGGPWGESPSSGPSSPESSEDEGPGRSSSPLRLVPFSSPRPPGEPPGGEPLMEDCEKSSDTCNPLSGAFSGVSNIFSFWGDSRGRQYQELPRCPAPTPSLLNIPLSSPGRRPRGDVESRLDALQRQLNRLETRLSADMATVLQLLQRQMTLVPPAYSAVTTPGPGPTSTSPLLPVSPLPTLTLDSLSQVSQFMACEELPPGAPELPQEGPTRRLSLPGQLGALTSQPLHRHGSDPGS

SMILES	hERG current change (%, negative = inhibition) at 10uM
COc1ccc(C2=NN(C(=O)CSc3nnnn3C)C(c3ccco3)C2)cc1 (stereo not shown)	3.05%
COc1ccc(-c2c(NC(=O)c3ccco3)n(-c3ccccc3)nc(C)c2=O)cc1	11%
O=C(COC(=O)c1ccccc1)NCc1ccco1	15.8%
Cc1ccc(CNC(=O)C(Cc2ccccc2)NS(=O)(=O)c2ccc(Br)s2)cc1 (stereo not shown)	0.563%
Cc1ccn2c(C(=O)NN=C3CCN(C)CC3)c(C)nc2c1	17.3%
COc1ccccc1-c1cc(SC)c(C#N)c(=O)o1	8.85%
Cc1c(OCC(=O)NC2CC(C)(C)NC(C)(C)C2)ccc2c1oc(=O)c1ccccc12	-19.4%
C/C(=N/NC(=O)c1ccc2c(c1)OCO2)c1cccc([N+](=O)[O-])c1	-10.1%
CC(C)OCCCNC(=O)CN1C(=O)COc2ccc(S(=O)(=O)N3CCCCCC3)cc21	4.01%
Cc1ccccc1CS(=O)(=O)CC(O)CN1CCCC1=O (stereo not shown)	12.1%
CC(C)c1ccc2oc(=O)cc(CN3CCOCC3)c2c1	17.1%
CCOc1ccccc1NC(=O)CSc1nnc(CNC(=O)COc2ccc(Cl)cc2)o1	-11.9%
Cc1ccc(S(=O)(=O)N(C)C)cc1NC(=O)COC(=O)CNC(=O)c1cccs1	14.5%
COc1cc2[nH]c(=S)nc(NCc3ccc(Cl)cc3)c2cc1OC	-3.55%
O=C(NCCC1=CCCCC1)c1ccc(CN2CCOCC2)cc1	-3.02%
COc1ccc(C(=O)/C=C/Nc2ccc(S(=O)(=O)Nc3nc(C)cc(C)n3)cc2)cc1OC	0.839%
O=C(c1cccnc1)N1CCN(Cc2ccc3c(c2)OCO3)CC1	-14%
CCCn1nnc(NC(=S)NC(=O)c2ccc(-c3ccc(Br)cc3)o2)n1	6.47%
CC1C(=O)OC(c2ccc(Br)cc2)C(C)(C)C1=O (stereo not shown)	10.3%
COc1ccc(C(=O)NCCC2=CCCCC2)cc1[N+](=O)[O-]	-25.8%
O=C(c1cc(-c2ccncc2)nc2ccccc12)N1CCN(c2ccccn2)CC1	-63.5%
NC(=O)c1ccccc1NC(=O)/C=C/c1ccc(Cl)cc1	1.13%

SMILES	hERG current change (%, negative = inhibition) at 10uM
CN1CCc2c1nc1ccccc1c2N.O=C(O)c1cc([N+](=O)[O-])ccc1Cl	-9.41%
COc1ccc(S(=O)(=O)N(C)c2ccc(C(N)=O)cc2)cc1	-16.9%
COC(=O)c1cccc(N2C(=O)c3ccccc3S2(=O)=O)c1	-9.36%
COc1ccc(C(=O)Nc2ccccc2C)cc1S(=O)(=O)N1CCOCC1	2.73%
CCCCCCNC(=O)CCc1nc2cccnc2n1Cc1ccc(OC)cc1	-63.6%
O=C(CN1CCN(c2ccccc2)CC1)Nc1ccccc1C(F)(F)F	-16%
O=C(O)C1C2C=CC3(O2)C1C(=O)N1c2ccccc2COC13 (stereo not shown)	18.8%
O=C(Nc1c2c(nn1-c1ccccc1)CS(=O)(=O)C2)c1cc2ccccc2o1	-20.1%
NC(=O)c1ccccc1OCc1nnc(-c2ccccc2Br)o1	-8.34%
O=C1CSC(=Nc2cc(Cl)ccc2Cl)N1	-0.496%
CC(=O)c1cccc(NC(=O)COC(=O)c2ccc3c(c2)OCO3)c1	12.4%
CCOc1ccc(-n2c(SCC(N)=O)nc3sc4c(c3c2=O)CCN(C)C4)cc1	12.4%
COC(=O)c1cncc(C)c1	8.06%
COc1ccc(NC(=O)Cn2nc(Cc3cccnc3)c3ccccc3c2=O)cc1OC	-10.2%
Cc1ccc(C(=O)NCCc2nnc3ccc(SCC(=O)Nc4cc(C)on4)nn23)cc1	-5.41%
COc1cc(C(=O)NCC(c2ccco2)N2CCc3ccccc32)cc(OC)c1OC (stereo not shown)	-6.64%
CN(C)c1ccc(NC(=O)C(=O)NCCOc2ccccc2)cc1	20.7%
O=C(CSc1nnc(-c2ccccn2)n1-c1ccccc1)Nc1ccc2c(c1)OCO2	1.81%
CC1CCc2c(nc3ncnn3c2N2CCN(c3ccccc3F)CC2)C1 (stereo not shown)	-24.5%
CC(C(=O)N1CCc2ccccc2C1)N(c1ccccc1)S(C)(=O)=O (stereo not shown)	12.4%
O=C(CN1C(=O)C2C3c4ccccc4C(c4ccccc43)C2C1=O)Nc1cccc(C(=O)O)c1 (stereo not shown)	-10.3%
O=[N+]([O-])c1cccc(/C=N/Nc2nnc(-c3ccccc3)c(-c3ccccc3)n2)c1	8.57%

SMILES	hERG current change (%, negative = inhibition) at 10uM
Cc1ccccc1C(=O)Nc1ccc(N(C)C)c2ccccc12	-7.47%
CC(C)c1ccc(CN(C)CC(O)c2ccccc2)cc1.O=C(O)C(=O)O (stereo not shown)	-18.9%
COc1ccc2c(c1)C1(Nc3ccccc3-c3nc4ccccc4n31)C(=O)N2 (stereo not shown)	-3.02%
Fc1ccc(-n2c(=S)[nH]c3cccnc32)cc1	26%
O=C1CCCC(O)=C1N=Nc1cccc(C(=O)O)c1	21.4%
O=C(O)c1ccccc1C(=O)Nc1ccc(S(=O)(=O)Nc2nccs2)cc1	4.83%
O=C(Oc1ccc2ccccc2c1)c1ccccc1	-7.81%
Cc1ccc(NS(=O)(=O)c2c(C(=O)N3CCCCCC3)c(C)n(C)c2C)c(C)c1	1.82%
COc1ccc([C@@H]2COc3c(ccc4c3C=CC(C)(C)O4)C2)c(OC)c1	16.2%
O=C(OCc1ccc([N+](=O)[O-])cc1)C1CC(=O)N(c2ccccc2)C1 (stereo not shown)	-69.1%
Cc1ccc(C(=O)NNC(=O)CCC(=O)Nc2cccc(Cl)c2C)cc1	-13.2%
CC(C)(C)OC(=O)CC12CCCCC1NC(=O)O2 (stereo not shown)	18.5%
CCOC(=O)C1CCN(C(=O)c2ccc(Br)o2)CC1	1.5%
COc1ccc(C(=O)C[n+]2cccc(C)c2C)cc1[N+](=O)[O-].[Br-]	-13.2%
CCN1CCN(c2ncnc3scc(-c4ccc(C)cc4)c23)CC1	-22.5%
S=C(NCc1ccccn1)Nc1ccccc1Cl	8.2%
Cc1ccc(S(=O)(=O)n2ccc3c(OCCOCCSCC(NC(=O)OC(C)(C)C)C(=O)O)cccc32)cc1 (stereo not shown)	14.1%
O=C(O)CC1=C(c2ccc(F)cc2)CCC1=O	22.9%
CC1=C(C(=O)OC2CCCCC2)C(c2ccccc2)NC(=O)N1 (stereo not shown)	10.1%
COc1cccc(NC(=O)CN(C)C(=O)c2cc(-c3ccc(C)o3)nc3ccccc23)c1	-13.9%
COc1ccc(OC)c(N=C2SCCCN2C(=O)c2ccc(N3C(=O)CCC3=O)cc2)c1	-3.31%
CCCCCN(C(=O)CCC(=O)OCC(=O)N(C)Cc1ccccc1C)c1c(N)n(CCCC)c(=O)[nH]c1=O	11.3%

SMILES	hERG current change (%, negative = inhibition) at 10uM
COc1ccc(C(=O)OCC(=O)c2c[nH]c3ccccc23)cc1OC	16.6%
O=C(N/N=C/c1cccs1)c1cncc(Br)c1	-10.1%
Cc1scc(C(=O)Nc2ccon2)c1-c1ccccc1	0.994%
O=C(NNC(=S)Nc1ccc(Cl)cc1Cl)c1cccnc1	8.1%
COc1cccc(S(=O)(=O)NCc2ccc(C(=O)NCc3ccccn3)cc2)c1	-24.4%
Cc1cc(=O)oc2ccc(OC(C)C(=O)O)cc12 (stereo not shown)	7.86%
CCOC(=O)c1sc(NC(=O)C(C)(C)C)cc1C	16%
O=C(CSCC(=O)N1CCOCC1)Nc1ccccc1	-0.115%
O=C(Nc1ccc(C(O)(C(F)(F)F)C(F)(F)F)cc1)c1ccc(Cl)c([N+](=O)[O-])c1	-27.9%
C/C(=C\C(=O)c1ccc(F)cc1)Nc1ccc(N2CCOCC2)cc1	7.37%
COc1cc(CNCC(O)c2ccccc2)ccc1OCc1ccc(Cl)nc1.Cl (stereo not shown)	-35.1%
COc1ccc(C(c2c(C)[nH]n(C(N)=S)c2=O)C(C#N)C#N)cc1 (stereo not shown)	16.3%
COc1ccc(CN(C)CC(=O)Nc2sc3c(c2C#N)CCC3)c(OC)c1	-23.5%
Cn1c(SCC(=O)Nc2ccccc2F)nc2c(c1=O)SCC2	-9.41%
COc1ccc(S(=O)(=O)N(NC2=NS(=O)(=O)c3ccccc32)C(=O)C(C)C)cc1	7.43%
Cc1ccc(S(=O)(=O)Nc2cccc(-c3ccc4nncn4n3)c2)cc1	8.78%
COc1ccc(NS(=O)(=O)CC(C)C)c(OC)c1	-0.778%
O=C(OCCN1CCCC1=O)c1cncc(Br)c1	1.65%
O=C(COC(=O)c1ccc(OC(F)F)cc1)NC(=O)NC1CCCC1	-4.6%
Cc1cc2cc(CNC(=O)C(C)Oc3ccccc3)ccc2n1C (stereo not shown)	-6.3%
CN1CCN(CCC(=O)OC2CC3CCC(C2)N3C)CC1.Cl (stereo not shown)	3.31%
O=C(c1cccc(F)c1)N1CCN(c2ccc([N+](=O)[O-])c3cccnc23)CC1	-66.1%
